The results in this text go back to the supplement of paper PMC11417369.

± gives the standard deviation of the averaged measurements. The list shows a part of the results.

This experiment deals with PfAP2-I AP2 domain 3 (GST-tagged). As to the kind of experiment: gcPBM binding intensity (ln(normalized median fluorescence intensity)); higher = stronger DNA binding. A digest of the protocol:
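GST-tagged P. falciparum DNA-binding domains produced in E. coli were incubated for 1 h on an Agilent 4 × 180k array of primer-extended double-stranded 36-bp intergenic genomic probes with negative controls. Binding intensity is the highest Masliner-normalised natural-log median intensity across replicate spots of either probe orientation, with bound protein detected by Alexa488 anti-GST antibody at 488 nm.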
“AATTAGATACTAACAAGTACATATATATATATATAT [XGTACX_site2252]”: the “gcPBM binding intensity (ln)” value was determined as 9.715 ± 0.092.

With “TTGTAATTATTAAACACACACAAAATATCTAGAATA [CACACA_site7231]”, the “gcPBM binding intensity (ln)” value is 7.8 ± 0.47.

Consider “ATTTAGATTAACACTTGTACATAATACATACAAATA [XGTACX_site4147]”, for which the “gcPBM binding intensity (ln)” value is 7.81 ± 0.45.

Turning to “ATTTTTTTTTGTGTATATAAATAAATAAATATATAT [GTGCAC_negctrl_site603]”, the “gcPBM binding intensity (ln)” value is 7.71 ± 0.43.

As for “TTTCCCTAATGAAAGTGTACCTGTGAGAAAAAAAAG [XGTACX_site194]”, the “gcPBM binding intensity (ln)” value was 7.99 ± 0.6.

As for “AAAAGAAAAGAGAGGAGTACAAAATATAATTATCTA [XGTACX_site5172]”, the “gcPBM binding intensity (ln)” value came to 7.96 ± 0.27.

Take “CATATTGGTATGCTCATGCACTTTTATTTTGTTATT [GTGCAC_site9553]”: the “gcPBM binding intensity (ln)” value was found to be 8.52 ± 0.53.

Consider “TGTATATATTAATGTACACACATGCGTATGTTCGTT [CACACA_site3583]”, for which the “gcPBM binding intensity (ln)” value turned out to be 7.74 ± 0.47.

For the sequence TTATTTATTTATATAGTGCAATAAACACATAAATAG, the “gcPBM binding intensity (ln)” value worked out at 10.8 ± 0.47.

As for “AAAAAAAAAAAAAGAACACACACAGTGCACATTCGG [CACACA_site8163]”, the “gcPBM binding intensity (ln)” value was determined as 10.7 ± 0.45.

For the sequence TGCTCCTATTATATAGTGCATTTATTTTAATAAACG, the “gcPBM binding intensity (ln)” value is 10.7 ± 0.56.

“TAATTTATAAAAAATTGTACATTAAACATATATATA [XGTACX_site5164]”: the “gcPBM binding intensity (ln)” value stood at 7.71 ± 0.49.

Regarding “AACCTTACACAAGGGGTGCAATATTATTTCGATAAA [GTGCAC_site9600]”, the “gcPBM binding intensity (ln)” value is 11.5 ± 0.66.

“TCTTTTCGTTCATGCTGTACTTAATTGCTCTAATTT [XGTACX_site4816]”: the “gcPBM binding intensity (ln)” value amounted to 8.09 ± 0.82.

With “AAAAAAAAAAAAAGCACACACACATATGTGTATATA [CACACA_site8225]”, the “gcPBM binding intensity (ln)” value stood at 8.33 ± 0.57.

Turning to CCCTGCCTCTCTTTGGTGCGTTGTAACCCTCGAGGA, the “gcPBM binding intensity (ln)” value amounted to 10.3 ± 0.33.

Take “TAAATTGTATATGAGACTATACTATAAAAGTATGAA [XGTACX_negctrl_site22]”: the “gcPBM binding intensity (ln)” value came to 7.46 ± 0.4.

On to “TGTCTGTGCGGGTGTACACATTTCATATTACCCAAT [CACACA_site5593]”, for which the “gcPBM binding intensity (ln)” value was determined as 8.52 ± 0.28.

Take “TAATTTTTCCTTTTTGCACACATTAACGTCGACGAA [CACACA_site4025]”: the “gcPBM binding intensity (ln)” value was determined as 10 ± 0.11.

Regarding “CAATTTATTTTTATTACACACTATCCAAATAATTTC [CACACA_site2956]”, the “gcPBM binding intensity (ln)” value was determined as 7.95 ± 0.4.

On to “AACATACGACAATACGCACACATATATGTACATATT [CACACA_site1917]”, for which the “gcPBM binding intensity (ln)” value was determined as 8.35 ± 0.61.

“TATATAATAATTTAGAGTACTGATAAAATATTCCAT [XGTACX_site6200]”: the “gcPBM binding intensity (ln)” value worked out at 7.55 ± 0.47.

“TTAAACAATTTAGACATACACACAAAAATAATATTA [CACACA_site385]”: the “gcPBM binding intensity (ln)” value worked out at 7.67 ± 0.59.

For “AGCATACATATTTTTTGTACATATATATATATATAT [XGTACX_site8536]”, the “gcPBM binding intensity (ln)” value is 9.38 ± 0.42.

“CCATAAAATCATAAGCGTACTTAATATATTTTACTT [XGTACX_site559]”: the “gcPBM binding intensity (ln)” value was 7.62 ± 0.64.

On to “AAATTCCACGAACACACACACATATAAATAAATAAA [CACACA_site6697]”, for which the “gcPBM binding intensity (ln)” value was determined as 8.01 ± 0.23.

For “TAGTAAAAACCAAAATGTACATGTGCCATTTTTTTA [XGTACX_site2630]”, the “gcPBM binding intensity (ln)” value stood at 7.79 ± 0.48.

With “TATATTATACTAAGAAGTACAATATTTTTATTGTAA [XGTACX_site2810]”, the “gcPBM binding intensity (ln)” value is 7.475 ± 0.007.

“TATAGTATTCTAAATGCATGTAAATTATGTATATAT [TGCATGCA_site931]”: the “gcPBM binding intensity (ln)” value worked out at 8.34 ± 0.8.

For “GTTTATCACAGCCACGCACACATAATATCTGTATAT [CACACA_site5929]”, the “gcPBM binding intensity (ln)” value turned out to be 8.18 ± 0.59.

“GATTATTAATAGTAACGTACATATGTTATAAAATAT [XGTACX_site5277]”: the “gcPBM binding intensity (ln)” value is 7.94 ± 0.58.

Take “CTTATATTGTACAGTACACACCTTTATAATGTTATT [CACACA_site4280]”: the “gcPBM binding intensity (ln)” value worked out at 8.23 ± 0.47.

Take “ATCAAAAAAAAAAAAAGTACACAAAATTTTTTATTA [XGTACX_site7986]”: the “gcPBM binding intensity (ln)” value stood at 8.18 ± 0.23.

Regarding ATAATGAACAAAGTAGTGCACTTTCCTTATCTTTTC, the “gcPBM binding intensity (ln)” value turned out to be 11.4 ± 0.26.

Consider “AAGGTTTAAAATTACTGTACAAATATAAATAAATAT [XGTACX_site3756]”, for which the “gcPBM binding intensity (ln)” value was found to be 7.71 ± 0.43.

On to “TATATGTGTGTTATATGTACTTATATATATATATAT [XGTACX_site5570]”, for which the “gcPBM binding intensity (ln)” value is 9.04 ± 0.26.

Consider “ACTAATATGTATATATATATATATATATATATATAT [CACACA_negctrl_site141]”, for which the “gcPBM binding intensity (ln)” value was found to be 9.17 ± 0.49.

Turning to “TACATATTTAAATACTGTACTCAAAAGAATTGTGCA [XGTACX_site2250]”, the “gcPBM binding intensity (ln)” value stood at 8.11 ± 0.11.

For the sequence “TATATATATATATATATATATATATATATATGTTGT [TGCATGCA_negctrl_site24]”, the “gcPBM binding intensity (ln)” value worked out at 9.23 ± 0.54.

Consider “ACTTTAAACAAAAAAAGTACTCTTTAATGAATATAT [XGTACX_site7176]”, for which the “gcPBM binding intensity (ln)” value was 7.83 ± 0.34.

Take “CAATATTTTATTTAAGCATGCTCTAGGGTGTAAAAG [TGCATGCA_site1001]”: the “gcPBM binding intensity (ln)” value is 8.26 ± 0.56.

For the sequence “CAATTTCTCTTAATTTGTACATATATGTTATACAAA [XGTACX_site3231]”, the “gcPBM binding intensity (ln)” value turned out to be 7.74 ± 0.5.

Take “TTATATATTTCTACTCATATTACAATGTGAGAAATA [CACACA_negctrl_site873]”: the “gcPBM binding intensity (ln)” value stood at 7.43 ± 0.55.

“TAGATATATAATTTTTGTACGTAGTCGAATCTCAGA [XGTACX_site765]”: the “gcPBM binding intensity (ln)” value stood at 7.63 ± 0.5.

As for CTCAACAAAATATGAGTGCATTGTTATTACATATAT, the “gcPBM binding intensity (ln)” value stood at 10.2 ± 0.27.

Consider “AACATTAAAAGGGATACACACATATAAATAAATAAT [CACACA_site489]”, for which the “gcPBM binding intensity (ln)” value turned out to be 7.79 ± 0.81.

For “AAATATATATAAAAGTGTACATTTGTTATAATCAGT [XGTACX_site4822]”, the “gcPBM binding intensity (ln)” value stood at 8.06 ± 0.55.

As for “CCAACTAAAAAGGAATGTACATAGTTATGGTTGGAA [XGTACX_site8762]”, the “gcPBM binding intensity (ln)” value worked out at 8 ± 0.74.

For the sequence “TAGATTTTTTAATGTTGTACAAATATACGATATATA [XGTACX_site3258]”, the “gcPBM binding intensity (ln)” value worked out at 7.68 ± 0.26.

In the case of “TTGTTTCTCTTTAAAAGTACAAAAATGGTTACATAT [XGTACX_site3109]”, the “gcPBM binding intensity (ln)” value is 8.02 ± 0.48.

“ACATCAAGCAGACACACACACACACGCACACGCACA [CACACA_site6309]”: the “gcPBM binding intensity (ln)” value came to 8.37 ± 0.49.

For “ACTATTCATGCATATACACACACATATATATATATT [CACACA_site9309]”, the “gcPBM binding intensity (ln)” value turned out to be 8.8 ± 0.53.

Consider “AACAATAAAAATAATTGTACAAGTTTAAAAAAAATT [XGTACX_site1987]”, for which the “gcPBM binding intensity (ln)” value came to 7.92 ± 0.49.

In the case of “TCTTTAAATTTCTCAACACACAGTTATAAAAAATAA [CACACA_site2856]”, the “gcPBM binding intensity (ln)” value was determined as 7.78 ± 0.3.

Turning to “TATATCTTATTTAACACACACAAAGAAAATAGAAAA [CACACA_site3732]”, the “gcPBM binding intensity (ln)” value was determined as 7.95 ± 0.62.

“CATTTAAGACAAATTACACACGTATGCCAAATATAT [CACACA_site431]”: the “gcPBM binding intensity (ln)” value is 8 ± 0.63.

Take “ATATTTTTTTTTGTTAGTACTCATATTTGTAGTTTT [XGTACX_site7280]”: the “gcPBM binding intensity (ln)” value stood at 8.01 ± 0.67.

For “AATATATATAATTATAGTACAGAAAATTAAAAAAGA [XGTACX_site2943]”, the “gcPBM binding intensity (ln)” value was found to be 8.07 ± 0.61.
